The test system of the experiment is primary human hepatic stellate cells (donor 1). As to the kind of experiment: scaled lipid accumulation score (0 = DMSO-like, 1 = nortriptyline-like); higher = stronger HSC inactivation (lipid re-accumulation), active = hit call of the paper. As to conditions: 48 h.
[1] abbreviates: library stock concentration: 10 mM.
The mark [2] stands for this setting: library stock concentration: 3.33 mM.
The mark [3] stands for this setting: library stock concentration: 1 mM.
Setting [4] is: library stock concentration: 80 uM.
Where [5] appears, read: library stock concentration: 400 uM.
Where [6] appears, read: library stock concentration: 2 mM.

Several values for one entry are separate records, joined by “and”; a condition that tells them apart may be missing. Equal values may be shown once. Where a name gives a salt, the structure may show the parent alone. Screen size: about 5,800 compounds; about 620 (11%) showed activity.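 Rule for the calls: active = score above a cut-off or among the top three wells of a plate; in these data no inactive exceeds 0.85.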 This is a selection; strong and weak results do not stand in their true shares.

Experimental findings from the supplement of paper PMC9135407 are described below.

As to `CN1C(CCl)Nc2cc(Cl)c(S(N)(=O)=O)cc2S1(=O)=O` (centres undefined), the “scaled lipid accumulation score” value under setting [1] was inactive: 0.013.

Regarding `CN1C(CCl)Nc2cc(Cl)c(S(N)(=O)=O)cc2S1(=O)=O` (centres undefined) [Methyclothiazide], the “scaled lipid accumulation score” value reads like this: under setting [2], inactive: ≤ 0; under setting [1], inactive: ≤ -0.001.

As to `CCc1cc(Cl)c(OC)c(C(=O)NC[C@@H]2CCCN2CC)c1O.Cl` [Eticlopride hydrochloride], the “scaled lipid accumulation score” value under setting [1] is active: 0.978. Regarding `CC(=O)NS(=O)(=O)c1ccc(N)cc1` [Sulfacetamide sodic hydrate], the “scaled lipid accumulation score” value is inactive: 0.029. Turning to `CC(=O)NS(=O)(=O)c1ccc(N)cc1` [Sulfacetamide], the “scaled lipid accumulation score” value (library stock concentration: 9.3 mM) is inactive: ≤ 0 and the “scaled lipid accumulation score” value under setting [1] was inactive: ≤ 0.

With `CC(=O)NS(=O)(=O)c1ccc(N)cc1` [Sulfacetamide Sodium], the “scaled lipid accumulation score” value is inactive: ≤ 0 under setting [2] and inactive: 0.052 under setting [1]. As to `CCCCCCCC/C=C\CCCCCCCC(=O)N[C@@H](CO)C(=O)O` [N-Oleoyl-L-Serine], the “scaled lipid accumulation score” value under setting [3] was inactive: ≤ 0. As to `Cc1cn([C@H]2C=C[C@@H](CO)O2)c(=O)[nH]c1=O` [Stavudine (d4T)], the “scaled lipid accumulation score” value by setting is: under setting [2], inactive: ≤ 0; under setting [1], inactive: ≤ 0. Regarding `Cc1cn([C@H]2C=C[C@@H](CO)O2)c(=O)[nH]c1=O`, the “scaled lipid accumulation score” value under setting [1] is inactive: ≤ 0. On to `Cc1ccc(S(=O)(=O)Cc2nc(-c3ccc(C(=O)NCc4cccnc4)cc3)oc2C)cc1`, for which the “scaled lipid accumulation score” value is, setting by setting: under setting [2], inactive: ≤ -0.009; under setting [1], inactive: 0.053. In the case of `O=C(Nc1cccc(C(=O)Nc2ccc(S(=O)(=O)O)c3cc(S(=O)(=O)O)cc(S(=O)(=O)O)c23)c1)Nc1cccc(C(=O)Nc2ccc(S(=O)(=O)O)c3cc(S(=O)(=O)O)cc(S(=O)(=O)O)c23)c1`, the “scaled lipid accumulation score” value under setting [1] was inactive: 0.313. On to `C=CC(=O)Nc1cc(Nc2nccc(-c3cn(C)c4ccccc34)n2)c(OC)cc1N(C)CCN(C)C`, for which the “scaled lipid accumulation score” value under setting [2] was active: 0.983.

Regarding `CCCCC/C=C\C/C=C\CC1OC1C/C=C\CCCC(=O)O` (centres undefined) [8,9-Epoxyeicosatrienoic acid], the “scaled lipid accumulation score” value (library stock concentration: 100 uM) is inactive: ≤ -0.021. Regarding `COc1cccc2c1C(=O)c1c(O)c3c(c(O)c1C2=O)C[C@@](O)(C(C)=O)C[C@@H]3O[C@H]1C[C@H](N)[C@H](O)[C@H](C)O1`, under setting [1], the “scaled lipid accumulation score” value was inactive: 0.004. In the case of `COc1cccc2c1C(=O)c1c(O)c3c(c(O)c1C2=O)C[C@@](O)(C(C)=O)C[C@@H]3O[C@H]1C[C@H](N)[C@H](O)[C@H](C)O1` [Daunorubicin HCl], the “scaled lipid accumulation score” value reads like this: under setting [2], inactive: 0.314; under setting [1], inactive: 0.169.

`COc1cccc2c1C(=O)c1c(O)c3c(c(O)c1C2=O)C[C@@](O)(C(C)=O)C[C@@H]3O[C@H]1C[C@H](N)[C@H](O)[C@H](C)O1` [Daunorubicin hydrochloride]: the “scaled lipid accumulation score” value was inactive: ≤ 0. Further, under setting [1], the “scaled lipid accumulation score” value was inactive: 0.391. Take `CNC(=O)c1ccccc1Nc1cc(Nc2ccc(N3CCOCC3)cc2OC)ncc1C(F)(F)F`: the “scaled lipid accumulation score” value reads like this: under setting [4], inactive: 0.011; under setting [5], inactive: ≤ 0; under setting [6], inactive: 0.034; under setting [1], inactive: 0.007.

For the compound `O=C(O)CCC/C=C\C[C@@H]1[C@@H](/C=C/[C@@H](O)COc2ccccc2)[C@H](O)C[C@@H]1O` [16-phenoxy tetranor Prostaglandin F2.alpha.], under setting [3], the “scaled lipid accumulation score” value is inactive: ≤ 0. With `CNC(=O)c1cc(Oc2ccc(NC(=O)Nc3ccc(Cl)c(C(F)(F)F)c3)cc2)ccn1` [Sorafenib], the “scaled lipid accumulation score” value was inactive: ≤ 0 under setting [2] and inactive: ≤ 0 under setting [1]. In the case of `CNC(=O)c1cc(Oc2ccc(NC(=O)Nc3ccc(Cl)c(C(F)(F)F)c3)cc2)ccn1` [Sorafenib  (Nexavar, BAY43-9006) (2 mM)], under setting [6], the “scaled lipid accumulation score” value was inactive: 0.299. As for `CNC(=O)c1cc(Oc2ccc(NC(=O)Nc3ccc(Cl)c(C(F)(F)F)c3)cc2)ccn1` [Sorafenib  (Nexavar, BAY43-9006) (0.4 mM)], the “scaled lipid accumulation score” value under setting [5] was inactive: 0.021. Turning to `CNC(=O)c1cc(Oc2ccc(NC(=O)Nc3ccc(Cl)c(C(F)(F)F)c3)cc2)ccn1`, the “scaled lipid accumulation score” value is inactive: 0.04 under setting [4], inactive: 0.075 under setting [5], inactive: ≤ 0 under setting [6] and inactive: 0.672 under setting [1]. With `CNC(=O)c1cc(Oc2ccc(NC(=O)Nc3ccc(Cl)c(C(F)(F)F)c3)cc2)ccn1` [Sorafenib Tosylate], the “scaled lipid accumulation score” value is inactive: 0.005 under setting [2] and inactive: ≤ 0 under setting [1].

With `CO[C@@H]1[C@@H](O[C@@H]2O[C@H](C)[C@@H](O[C@H]3C[C@@](C)(O)[C@@H](OC(=O)CC(C)C)[C@H](C)O3)[C@H](N(C)C)[C@H]2O)[C@@H](CC=O)C[C@@H](C)[C@@H](O)/C=C/C=C/C[C@@H](C)OC(=O)C[C@H]1OC(C)=O` [Josamycin], the “scaled lipid accumulation score” value was inactive: ≤ 0.

With `NC(N)=NC(=O)c1nc(Cl)c(N)nc1N`, the “scaled lipid accumulation score” value under setting [1] was inactive: ≤ 0. With `O=c1oc2c(O)c(O)cc3c(=O)oc4c(O)c(O)cc1c4c23` [Ellagic acid], the “scaled lipid accumulation score” value reads like this: under setting [4], inactive: ≤ 0; under setting [5], inactive: ≤ 0; under setting [6], inactive: ≤ 0; under setting [1], inactive: ≤ 0. Take `CC(=O)CC(c1ccccc1)c1c(O)c2ccccc2oc1=O` (centres undefined): the “scaled lipid accumulation score” value under setting [1] is inactive: ≤ 0. `CC(=O)CC(c1ccccc1)c1c(O)c2ccccc2oc1=O` (centres undefined) [Warfarin]: the “scaled lipid accumulation score” value under setting [1] is inactive: ≤ 0. As for `CC(=O)CC(c1ccccc1)c1c(O)c2ccccc2oc1=O` (centres undefined) [(?)-Warfarin], under setting [3], the “scaled lipid accumulation score” value was inactive: ≤ 0. In the case of `CN(c1ccccc1CNc1nc(Nc2ccc3c(c2)CC(=O)N3)ncc1C(F)(F)F)S(C)(=O)=O`, the “scaled lipid accumulation score” value is, setting by setting: under setting [4], inactive: 0.012; under setting [5], inactive: 0.01 and inactive: ≤ -0.005; under setting [6], inactive: 0.006 and inactive: 0.062; under setting [1], inactive: 0.25 and inactive: 0.064. For `NS(=O)(=O)c1cc2c(cc1Cl)NC(C1CC3C=CC1C3)NS2(=O)=O` (centres undefined) [Cyclothiazide], the “scaled lipid accumulation score” value (library stock concentration: 5.1 mM) is inactive: ≤ 0; the “scaled lipid accumulation score” value under setting [1] was inactive: ≤ -0.07 and inactive: 0.028. Regarding `O=C1NS(=O)(=O)c2ccccc21` [Saccharin], the “scaled lipid accumulation score” value was inactive: 0.02 under setting [1] and inactive: ≤ 0 (library stock concentration: 10.9 mM). With `S=C(S)N1CCCC1` [Pyrrolidinedithiocarbamate ammonium], the “scaled lipid accumulation score” value under setting [1] was inactive: 0.149. The same measure, in the same setting: to `S=C(S)N1CCCC1` [Ammonium pyrrolidinedithiocarbamate] belongs inactive: ≤ 0. Consider `Cc1cc(Nc2cc(N3CCN(C)CC3)nc(C=Cc3ccccc3)n2)n[nH]1`, for which the “scaled lipid accumulation score” value under setting [2] was active: 1.06. For `CCN(CC)CC(=O)Nc1c(C)cccc1C`, the “scaled lipid accumulation score” value is, setting by setting: (library stock concentration: 9.6 mM) inactive: 0.022; (library stock concentration: 17.3 mM) inactive: 0.009. `CCN(CC)CC(=O)Nc1c(C)cccc1C` [Lidoca?ne hydrochloride]: the “scaled lipid accumulation score” value was inactive: 0.017. For `CCN(CC)CC(=O)Nc1c(C)cccc1C` [Lidocaine], the “scaled lipid accumulation score” value was inactive: ≤ 0 under setting [2] and inactive: ≤ 0 under setting [1]. `CCN(CC)CC(=O)Nc1c(C)cccc1C` [Lidocaine hydrochloride]: the “scaled lipid accumulation score” value under setting [1] is inactive: ≤ 0 and inactive: ≤ -0.052.
